About 230 (0.21%) of roughly 110,000 compounds showed an effect of 50% or more. The list shows a part of the results.
molecular target: DPAP1 (Plasmodium falciparum, UniProt Q8IIJ9); experiment: primary screen, percent inhibition; read by cleavage of a fluorogenic dipeptide substrate; higher = more effect of the substance; parameters: species or system P. falciparum D10 trophozoite lysates; single well
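Note: 30 min substrate incubation versus DMSO and 10 µM JCP410 controls.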

DPAP1, sequence (Q8IIJ9 whole entry, looked up): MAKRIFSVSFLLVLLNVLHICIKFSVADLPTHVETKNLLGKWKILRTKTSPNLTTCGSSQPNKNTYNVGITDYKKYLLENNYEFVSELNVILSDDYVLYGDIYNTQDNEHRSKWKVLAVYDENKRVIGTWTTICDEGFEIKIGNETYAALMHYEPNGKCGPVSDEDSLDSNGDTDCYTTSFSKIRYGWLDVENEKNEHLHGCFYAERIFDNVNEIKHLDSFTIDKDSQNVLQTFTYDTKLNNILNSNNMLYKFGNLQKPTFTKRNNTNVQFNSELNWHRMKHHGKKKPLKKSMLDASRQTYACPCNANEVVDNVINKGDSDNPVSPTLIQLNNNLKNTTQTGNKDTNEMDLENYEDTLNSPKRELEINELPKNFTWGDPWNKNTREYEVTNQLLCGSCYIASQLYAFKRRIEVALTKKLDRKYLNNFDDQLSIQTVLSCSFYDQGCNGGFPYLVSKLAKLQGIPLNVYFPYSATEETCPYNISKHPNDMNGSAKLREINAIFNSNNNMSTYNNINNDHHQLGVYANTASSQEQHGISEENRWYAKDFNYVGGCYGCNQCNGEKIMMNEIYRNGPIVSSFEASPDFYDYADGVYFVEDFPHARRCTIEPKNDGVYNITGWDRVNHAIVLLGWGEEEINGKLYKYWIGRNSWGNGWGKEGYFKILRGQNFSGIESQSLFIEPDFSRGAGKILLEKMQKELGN

| SMILES | % Inhibition @ 10 uM [%] |
| --- | --- |
| NS(=O)(=O)c1ccc(NC(=O)CSc2nc(-c3ccccc3)c(-c3ccccc3)o2)cc1 | -0.884 |
| CCCC(=O)Nc1ccc(S(=O)(=O)N(C)Cc2ccccc2)cc1 | -0.251 |
| Cc1cccc(NC(=O)c2noc3c2CCCC3)n1 | -3.64 |
| COc1c2ccoc2nc2c(OC)cccc12 | -0.969 |
| O=S(=O)(NCCc1nnc2ccc(SCc3cccc(C(F)(F)F)c3)nn12)c1ccccc1 | -2.26 |
| CCc1ccccc1-n1c(SCC(=O)N(CC)CC)nc2nnc(C)c-2c1N | 1.2 |
| Cc1ccc(S(=O)(=O)Nc2ccc(NC(=O)Nc3ccc(Cl)cc3)cc2)cc1 | -2.46 |
| CCOC(=O)N1CCN(c2c(NCCCN(CC)CC)c(=O)c2=O)CC1 | -5.05 |
| CCN(CC)CCCC(C)NC(=O)c1c(NC(=O)c2ccccc2)sc(C)c1C (stereo not shown) | 1.13 |
| COc1ccc(-c2cc(C(N)=O)on2)cc1 | 8.01 |
| COCCN1C(=O)/C(=C/c2ccccc2)S/C1=N\c1ccccc1 | -4.21 |
| CC(C)(C)C(=O)Nc1ccc(-c2nc3ccccc3o2)cc1 | -4.43 |
| CCOc1ccc2nc(N3CCCC(C(=O)NC(CC)Cc4ccccc4)C3)sc2c1 (stereo not shown) | 3.4 |
| Cc1ccc(C)c(-c2csc(NC(=O)C3C4CCC(C4)C3C(=O)O)n2)c1 (stereo not shown) | 8.36 |
| Cc1ccc2[nH]c3c(N4CCOCC4)ncnc3c2c1 | -1.85 |
| CC1Cc2cc(C(=O)C3=C(O)C(=O)N(CCCN4CCOCC4)C3c3ccccc3)ccc2O1 (stereo not shown) | -1.41 |
| CCSC1=N/C(=C\c2ccc(OC)cc2)C(=O)N1 | -0.105 |
| CCCCNc1oc(/C=C/c2ccccc2OC)nc1C#N | 0.685 |
| O=C(O)CSc1nnc(-c2cccs2)n1-c1ccccc1 | -7.65 |
| CCCN(CCC)S(=O)(=O)c1ccc(C(=O)Nc2nc3c(s2)CCc2ccccc2-3)cc1 | 7.49 |
| CC(C)(C)c1ccc(/C=C/C(=O)N(Cc2ccccc2F)C2CCS(=O)(=O)C2)cc1 (stereo not shown) | 5.17 |

| SMILES | % Inhibition @ 10 uM [%] |
| --- | --- |
| O=C1NN(c2ccc(Br)cc2)C(=O)/C1=C\c1ccco1 | -3.35 |
| Cc1ccc(Cc2c(C)nc3c(C(=O)NCc4ccc5c(c4)OCO5)cnn3c2C)cc1 | -0.406 |
| COC(=O)c1sccc1NC(=O)CSc1nnnn1-c1ccccc1F | 2.99 |
| Cc1ccc(-n2nc3c(N4CCCC(C(=O)NCc5ccccn5)C4)nnc(C)c3c2C)cc1 (stereo not shown) | -1.23 |
| O=C(c1ccc(S(=O)(=O)N2CCCC2)cc1)N1CCN(C(c2ccccc2)c2ccccc2)CC1 | -0.891 |
| CC(C(=O)O)c1nnc(O)c2ccccc12 (stereo not shown) | 4.15 |
| COCCNC(=O)CN1CCN(Cc2cccc(Cl)c2)C1=O | -1.55 |
| CCCCC(NC(=O)C(NC(=O)OCc1ccccc1)C(C)CC)C(=O)C[N+](=O)[O-] (stereo not shown) | 0.744 |
| O=C(c1cc(-c2ccco2)on1)N1CCN(C(c2ccccc2)c2ccccc2)CC1 | 0.0221 |
| Cc1nc(NC(=O)c2cc(Cl)ccc2Cl)ccc1Br | 0.755 |
| Cc1cc(NS(=O)(=O)c2ccc(NC(=O)COc3ccc(C(C)C)c(C)c3)cc2)no1 | 6.73 |
| COC(=O)c1cccc(NC(=O)c2ccccc2OC)c1 | -6.44 |
| CCOc1ccc2nc(N3CCC(C(=O)N4CCN(C)CC4)CC3)sc2c1 | -0.0745 |
| CCOC(=O)c1cc(C)n(CC2CCC(C(=O)NCCC3=CCCCC3)CC2)c1C (stereo not shown) | -0.943 |
| C=CCSc1nc(O)c2c(n1)NC(=O)CC2c1ccc(O)c(OCC)c1 (stereo not shown) | -1.11 |
| CCc1ccc(C(=O)CSc2nc3ccccc3c(=O)n2C)cc1 | 5.39 |
| CSc1ccc(CN2CCC(C(N)=O)CC2)cc1 | -2.95 |
| Nc1nnc(Sc2c(O)nc3ccc(Cl)cc3c2-c2ccccc2)s1 | 9.14 |
| CCCSc1ncc(Cl)c(C(=O)Nc2cccnc2)n1 | 5.29 |
| COCCNC(=O)C1CCN(S(=O)(=O)c2c(C)noc2/C=C/c2cccs2)CC1 | -3.32 |
| CN(C)c1ccc(C(NS(=O)(=O)c2ccccc2)(C(F)(F)F)C(F)(F)F)cc1 | 7.25 |

| SMILES | % Inhibition @ 10 uM [%] |
| --- | --- |
| Cc1ccc2c(=O)c(C(=O)c3ccc(Cl)cc3)cn(CC(=O)NCc3ccco3)c2n1 | 3.87 |
| NC(=O)C(c1ccccc1)c1ccccn1 (stereo not shown) | 1.57 |
| O=C1O[C@H]2C[C@@H]3C[C@H]2[C@H]1[C@@H]3C(=O)N(Cc1ccccc1)Cc1ccccc1 | 0.558 |
| CC1CCCN(C(=O)C(Sc2ccccc2)c2ccccc2)C1 (stereo not shown) | -4 |
| O=C(Nc1ccc(Cl)cn1)c1ccc2nsnc2c1 | -0.0108 |
| COc1cc(C(=O)Nc2nnc(S(=O)(=O)N3CCCCCC3)s2)cc(OC)c1OC | 3.3 |
| Cc1cccc(CN(CC(C)O)CC(C)O)c1 (stereo not shown) | 1.62 |
| Cc1ccc(-n2nc(C)c3cc(C(=O)O)sc32)cc1 | -3.34 |
| CN1C(=O)/C(=C\c2cc(Br)ccc2O)N=C1SCC(=O)NCc1ccco1 | 1.03 |
| O=C(Nc1cccc([N+](=O)[O-])c1)c1cccc(C(=O)Nc2cccc([N+](=O)[O-])c2)c1 | -10.1 |
| CCOC(=O)c1sc(N2C(=O)c3oc4ccccc4c(=O)c3C2c2ccccc2F)nc1C (stereo not shown) | -2.92 |
| CCC1CCC(NCCCn2ccnc2)CC1 (stereo not shown) | -7.18 |
| CN1C2CCC1CC(N(CCc1ccccc1)C(=O)c1ccc(-c3ccccc3)cc1)C2 (stereo not shown) | 0.0035 |
| O=C(NCc1ccc(F)cc1)c1noc2c1COc1ccccc1-2 | 69.7 |
| Cn1c(=O)c(S(=O)(=O)C(C)(C)C)c(O)c2ccccc21 | -1.98 |
| COc1ccccc1[C@@H](C)C[C@H](NC(=O)c1ccc(-c2ccccc2Cl)c(Cl)c1)C(=O)NCC#N | -4.82 |
| CNC(=O)/C(C#N)=C/c1c(Oc2ccc(C(C)(C)C)cc2)nc2c(C)cccn2c1=O | -1.43 |
| COc1ccc(-c2cc3c(=O)n(CC(=O)NCCc4ccc(Cl)cc4)ncn3n2)cc1 | 3.87 |
| CCOC(=O)c1c(C)oc2c1c(/C=N/C1CCS(=O)(=O)C1)c(O)c1ccccc12 (stereo not shown) | 0.343 |

Reference: paper PMC6919601, “Identification of Plasmodium dipeptidyl aminopeptidase allosteric inhibitors by high throughput screening” (PLoS ONE, 2019)
